Test results taken from PubChem BioAssay AID1508642 (National Center for Advancing Translational Sciences (NCATS), 2021).
In all, about 43,000 compounds went through this assay and about 200 (0.47%) were called active. Inconclusive results, whose numbers are uncertain, are shown with a selection of clear calls. The call rests on the fitted dose curve; in most records, active means well fitted cell-killing curve with a large enough effect; inconclusive means small, poorly fitted or top-dose-only effect, or effect the other way; inactive means flat fitted curve, though single readings scatter. Where the call is inconclusive, the potency comes from a doubtful curve fit.

Assay: Cell viability qHTS assay in S16 Pmp22-F2sN cells; further: nearly all actives have a fitted effect of over 65% in size
Conditions: S16 Pmp22-F2sN Schwann cells (luciferase reporters placed in the Pmp22 gene) viability, CellTiter-Glo, 24 h; series mostly up to 57.5 µM
Summary of the method: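 CellTiter-Glo counter-screen, qHTS, 1536-well. Cells: S16(c9) Pmp22-F2sN, 500-1,000/well in DMEM + 10% FBS. Cpd 23 nL pin transfer, 24 h, 37C/5% CO2. Read: luminescence, CCD imager.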
Potency means the concentration at half of the fitted maximal effect; tags describe the fitted curve by direction and shape.

SMILES | Potency
COCCn1c(SCC(=O)c2c(C)[nH]c3ccccc23)nc2cc(C(=O)NC(C)C)ccc2c1=O | inconclusive: 39.8 µM [cytotoxic, single point]
COc1ccc(NC(=O)c2oc3ccccc3c2NC(=O)c2cc(C)cc(C)c2)c(OC)c1 | inconclusive: 3.98 µM [rising, full curve, poor fit]
Cc1cccc(OCCCCn2c(C3CC(=O)N(c4ccc(C)cc4C)C3)nc3ccccc32)c1 (stereo not drawn) | inconclusive: 35.5 µM [cytotoxic, partial curve, poor fit]
Cc1cccc(CNC(=O)c2cnc3sc(N4CCOCC4)nn3c2=O)c1 | inactive
CCN1CCOC(=O)C1CC(=O)Nc1cc(Cl)ccc1OC (stereo not drawn) | inconclusive: 35.5 µM [cytotoxic, single point]
O=C(NC1CCCCC1)/C(=C/c1ccc(Cl)cc1)NC(=O)c1ccccc1 | inconclusive: 39.8 µM [cytotoxic, partial curve, poor fit]
Cc1ccc2[nH]c3c(=O)n(CC(=O)N(C)Cc4ccccc4)ncc3c2c1 | inconclusive: 12.6 µM [rising, partial curve, poor fit]
CCOc1ccc(CCNC(=O)c2nn(-c3ccc(OC)cc3)c(=O)c3c2c2ccccc2n3C)cc1OCC | inconclusive: 39.8 µM [rising, single point]
COc1ccc(Nc2cc(C(=O)NCCCN(C)C3CCCCC3)c3ccccc3n2)cc1 | inconclusive: 39.8 µM [cytotoxic, single point]
CCCN(C(=O)Cn1nc(Cc2ccncc2)c2ccccc2c1=O)c1ccccc1C | inactive
CCc1ccccc1NC(=O)c1ccc2[nH]c(C)c(C)c2c1 | inconclusive: 22.4 µM [rising, partial curve, poor fit]
Cc1nn(C)c2c1c(C(F)(F)F)cc(=O)n2CC(=O)NC(C)(C)C | inactive
COCCn1c(CNC(=O)c2cc(OC)c(OC)c(OC)c2)nc2cccnc21 | inactive
COC(=O)c1ccc(NC(=O)c2c(NCc3ccc(OC)c(OC)c3)sc3c2CCCC3)cc1 | inconclusive: 20 µM [cytotoxic, partial curve]
CCN(CC)CCNC(=O)c1cc2c(=O)[nH]c3ccc(C)cc3c2s1 | inactive
CCN(c1ccc(C)cc1)S(=O)(=O)c1nnc(NC(=O)c2cccs2)s1 | inactive
CCCc1nn2c(C)c(-c3ccccc3)nc2s1 | inactive
CC(C)(C)c1ccc(S(=O)(=O)Nc2ccc(O)c(Sc3nc4ccccc4s3)c2)cc1 | inconclusive: 10 µM [cytotoxic, partial curve, poor fit]
CCOc1ccccc1NC(=O)c1cc(S(=O)(=O)NC2CCCC2)ccc1F | inactive
Cc1ccccc1C(=O)OCc1cc(=O)n2nc(C3CC3)sc2n1 | inconclusive: 4.47 µM [cytotoxic, partial curve]
CCOC(=O)c1ccc(Nc2nc3nonc3nc2Nc2cccc(C)c2C)cc1 | inconclusive: 10 µM [cytotoxic, partial curve]
Cc1cccc(NC(=O)Cn2cc(C(=O)C3CCCCC3)c3ccccc32)c1C | inconclusive: 8.91 µM [cytotoxic, partial curve]

SMILES | Potency
CCCc1nn2c(=O)cc(COC(=O)c3cccs3)nc2s1 | inconclusive: 0.224 µM [cytotoxic, full curve, poor fit]
Cc1ccc(CNC(=O)C(=O)NCC(c2cccnc2)N2CCN(c3ccc(F)cc3)CC2)cc1 (stereo not drawn) | inconclusive: 22.4 µM [cytotoxic, single point]
CCCC1=Nc2cc(C(=O)NCCc3ccc(OCC)cc3)ccc2Sc2ccccc21 | inactive
CCN(CCCNC(=O)c1ccc(Sc2ccc(F)cc2)c(NC(C)=O)c1)c1ccccc1 | inconclusive: 0.355 µM [rising, full curve, poor fit]
COc1ccc(CNC(=O)Cn2c(=O)nc(-c3ccccc3F)c3cc(Cl)ccc32)cc1 | inactive
Cc1c(-c2ccc(Cl)cc2)c(=O)oc2c(CN3CCN(CCO)CC3)c(O)ccc12 | inconclusive: 0.112 µM [rising, full curve, poor fit]
Cc1ccc(NC(=O)Nc2ccc3nc(N4CCN(C)CC4)cc(C)c3c2)cc1F | inconclusive: 39.8 µM [cytotoxic, single point]
CCCN(CCC)CCCNC(=O)C1CCN(c2nc3ccc(CC)cc3s2)CC1 | active: 28.2 µM
CCOc1ccc(CNC(=O)c2ccccc2NC(=O)c2nsc3ccccc23)cc1 | inactive
COc1ccc(NC(=O)c2sc3nc4c(cc3c2N)CCCCCC4)cc1 | inconclusive: 39.8 µM [cytotoxic, single point]
CCCc1cc(N2CCN(c3cccc(C)c3C)CC2)n2cnnc2n1 | inconclusive: 39.8 µM [cytotoxic, single point]
CN(C)c1ccc(-c2nc(-c3cccs3)c(-c3cccs3)[nH]2)cc1 | inconclusive: 20 µM [cytotoxic, single point]
CCc1ccc(NC(=O)[C@H](CSCc2ccccc2)N2Cc3ccccc3C2=O)cc1 | inactive
COc1ccccc1C(=O)OCc1cc(=O)n2nc(-c3cccs3)sc2n1 | inconclusive: 0.251 µM [cytotoxic, full curve]
COC(=O)c1ccc(NS(=O)(=O)c2ccc3[nH]c4c(c3c2)CCCC4)cc1 | inactive
CC(=O)Nc1cccc(Nc2nc3ccccc3n3c(C)nnc23)c1 | inactive
CCCN(CCC)CCCNC(=O)Cn1ncc2c3ccccc3n(Cc3ccccc3F)c2c1=O | inconclusive: 28.2 µM [cytotoxic, single point]
Cc1ccc(S(=O)(=O)c2c(Nc3cc(F)ccc3F)sc(C(=O)c3ccc(F)cc3)c2N)cc1 | inconclusive: 39.8 µM [rising, single point]
CCN(CC)CCN(C(=O)c1ccco1)c1nc2ccc(Br)cc2s1 | inconclusive: 6.31 µM [rising, single point]
CC(=O)Nc1nonc1-c1nnc(SCC(=O)Nc2cc(C)cc(C)c2)n1-c1ccccc1 | inconclusive: 39.8 µM [cytotoxic, single point]
Cc1ccc(NC(=O)N2CCC(c3ccccc3)C2)cc1C (stereo not drawn) | inactive
